From PubChem BioAssay (NCATS)
Inconclusive results, whose numbers are uncertain, are shown with a selection of clear calls. For some assays here: Potencies of inconclusive entries are left out as doubtful fits. For some assays here: “Side channel” marks fits to a control or component signal instead of the main read-out. Calls of active or inactive are those of the source. Unless noted, calls come from the whole dose curve; as a rule, active = well fitted inhibition curve with a large enough effect; inconclusive = small, poorly fitted or top-dose-only effect; inactive = no such curve, though single readings can be large or run the other way.
% is set by controls: 0 for no effect and ±100 for the full control effect; tags give direction and shape of the fitted curve or compound fluorescence and quenching.

Tested on: not listed separately
Test: qHTS Assay for Identification of Small Molecule Antagonists for NFkB Signaling Pathway (AID 895; active = well fitted inhibition curve with a large enough effect in the signal ratio, with a control signal flat, not every such curve was filed as active; inconclusive = small, poorly fitted or top-dose-only effect, or effect the other way, or a change in a side signal; the % refers to the signal ratio; note: potency is the fitted concentration of half-maximal effect)
Settings: NFkB beta-lactamase reporter cells, FRET ratio 460/530; activity change, negative = inhibition: at 38.3 µM (top of the series)
Method in brief: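 ME-180 NFkB-bla cells (beta-lactamase under NFkB response element), plated overnight, treated with compound then 10 pM TNF alpha (about EC50) for 5 hrs at 37 C. LiveBLAzer FRET read at 460/530 nm emission, 405 nm excitation.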
For `O=C(CCCN1CCC2(CC1)C(=O)NCN2c1ccccc1)c1ccc(F)cc1`, the Potency was “inactive”. In the case of `CN[C@@H]1C[C@@H](c2ccc(Cl)c(Cl)c2)c2ccccc21`, the Potency is reported as active: 8.91 µM. For `O=P1(N(CCCl)CCCl)NCCCO1` (centres undefined), the activity change, negative = inhibition was inconclusive: -52.1%. In the case of `C[N+](C)(C)CC#CCOC(=O)Nc1cccc(Cl)c1`, the activity change, negative = inhibition is reported as inconclusive: -1.65%. With `CC1=NN=C(c2ccc(N)cc2)c2cc3c(cc2C1)OCO3` the Potency was inconclusive [inhibitor, single point]. For `CN1[C@@H]2CC[C@H]1CC(OC(=O)c1cc(Cl)cc(Cl)c1)C2` (some centres undefined), the activity change, negative = inhibition was inconclusive: -12.9%. For `Cc1ccc(S(=O)(=O)N[C@@H](CCCCN)C(=O)CCl)cc1`, the Potency was active: 11.2 µM. With `CCCCC/C=C\C/C=C\C/C=C\C/C=C\CCCC(=O)NCC(=O)O` the activity change, negative = inhibition was inconclusive: -39.4%. In the case of `Nc1ccncc1`, the activity change, negative = inhibition is reported as inconclusive: -1.22%. For `c1ccc(CCCN2CCN(CCOC(c3ccccc3)c3ccccc3)CC2)cc1`, the Potency was inconclusive [cytotoxic, side channel]. In the case of `COC(=O)C1=CCCN(C)C1`, the Potency is reported as “inactive”. In the case of `N[C@@H]1C[C@H]1c1ccccc1`, the Potency is reported as “inactive”. In the case of `O=c1c2ccccc2[se]n1-c1ccccc1`, the Potency is reported as inconclusive [inhibitor, single point]. For `Clc1cccc(N2CCNCC2)c1`, the activity change, negative = inhibition was inconclusive: 11.7%. For `CC(C)NP(=O)(NC(C)C)OP(=O)(NC(C)C)NC(C)C`, the Potency was “inactive”. With `CCCN1CCC[C@@H]2Cc3nc(N)ncc3C[C@H]21` the Potency was “inactive”. With `Clc1ccc(N2C[C@H]3CC[C@@H](C2)N3)nn1` the Potency was “inactive”. For `Fc1ccc(C(OCCN2CCN(CCCc3ccccc3)CC2)c2ccc(F)cc2)cc1`, the Potency was inconclusive [cytotoxic, side channel, single point]. In the case of `NCC1(CC(=O)O)CCCCC1`, the activity change, negative = inhibition is reported as inconclusive: -14.3%. For `NCC(CC(=O)O)c1ccc(Cl)cc1` (centres undefined), the Potency was active: 5.62 µM. With `COc1ccc2c(c[n+](C)c3c4cc5c(cc4ccc23)OCO5)c1OC` the Potency was active: 11.2 µM. In the case of `c1ccc(C2CC2)c(OCC2=NCCN2)c1`, the activity change, negative = inhibition is reported as inconclusive: -10.8%. In the case of `CC(=O)[C@H]1CC[C@H]2[C@@H]3CC[C@H]4C[C@H](O)CC[C@]4(C)[C@H]3C(=O)C[C@]12C`, the activity change, negative = inhibition is reported as inconclusive: -32.4%. In the case of `N#CC(C#N)=Cc1cc(O)c(O)c(O)c1`, the Potency is reported as inconclusive [inhibitor, partial curve, poor fit]. With `Cc1nc(-c2ccc(-c3ccc(C(=O)N4CCc5cc6c(cc54)C4(CCN(C)CC4)CO6)cc3)c(C)c2)no1` the activity change, negative = inhibition was inconclusive: 36.1%. In the case of `Cc1c(C(=O)c2cccc3ccccc23)c2cccc3c2n1[C@H](CN1CCOCC1)CO3`, the Potency is reported as inconclusive [cytotoxic, side channel, single point].

Target: Cytochrome P450 2C19 (Homo sapiens) (UniProt P33261)
UniProt P33261, sequence (P33261 whole entry, looked up): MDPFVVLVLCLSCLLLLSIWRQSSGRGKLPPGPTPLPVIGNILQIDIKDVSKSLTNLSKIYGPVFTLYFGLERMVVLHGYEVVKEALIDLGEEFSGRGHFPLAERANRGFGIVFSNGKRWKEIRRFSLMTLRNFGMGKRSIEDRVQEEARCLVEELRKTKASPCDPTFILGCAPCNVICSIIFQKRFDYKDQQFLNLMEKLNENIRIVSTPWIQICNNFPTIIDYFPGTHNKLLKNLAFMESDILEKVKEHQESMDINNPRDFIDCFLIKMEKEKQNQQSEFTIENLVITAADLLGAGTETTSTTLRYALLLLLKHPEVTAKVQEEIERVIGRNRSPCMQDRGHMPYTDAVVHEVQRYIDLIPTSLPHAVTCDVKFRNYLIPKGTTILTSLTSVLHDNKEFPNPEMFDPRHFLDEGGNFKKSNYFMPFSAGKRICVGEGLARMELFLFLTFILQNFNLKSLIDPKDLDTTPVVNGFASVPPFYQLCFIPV
Test: qHTS Assay for Inhibitors and Substrates of Cytochrome P450 2C19 (AID 899); note: top concentration of the series differs between compounds; nearly all actives have a fitted effect of over 60% in size
Settings: recombinant CYP2C19, luciferin-H EGE luminescence; series mostly up to 57.1 µM
Method in brief: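 Luminescent read-out of luciferin formed from Luciferin-H EGE (10uM, equal to KM). Enzyme 5nM in 50mM KPO4; compound added, 10 min at 37C, then NADPH regenerating system for 60 min at 37C. Full inhibition defined by 57uM ketoconazole.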
With `N#CC(C#N)=Cc1ccc(O)c(O)c1` the Potency was “inactive”. With `NCC1(CC(=O)O)CCCCC1` the Potency was “inactive”. In the case of `O=[N+]([O-])c1cc([As](=O)(O)O)ccc1O`, the Potency is reported as “inactive”.
